# Results as given in ChEMBL document CHEMBL5606458, “ASAP - ZIKV NS2B-NS3 protease fluorescence single point” (2024).
# The whole screen tested about 2,700 compounds, of which about 160 (5.9%) showed an effect of 50% or more. This is one part of the list.
# Target: Nonstructural protein 3 (Zika virus) (UniProt A0A024AXB9)
# [1] = PRVABC59, Concentration 15.0 uM, Number of replicates 1.0
# [2] = PRVABC59, Concentration 50.0 uM, Number of replicates 1.0
# UniProt A0A024AXB9, sequence (A0A024AXB9 as listed by the source): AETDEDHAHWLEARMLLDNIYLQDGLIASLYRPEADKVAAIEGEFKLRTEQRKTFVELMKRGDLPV
compound,measurement,setting,value
O=C(Nc1c(Cl)cc(Cl)cc1Br)c1cc(Cl)ccc1NS(=O)(=O)c1ccc(Oc2ccccc2Cl)cc1,inhibition,[1],21.5%
CCc1n[nH]c([C@H]2CN(C(=O)c3cn([C@H]4CCCNC4)nn3)CCO2)n1,inhibition,"PRVABC59, Concentration 49.5 uM, Number of replicates 2.0, Standard deviation 0.0019020029795996259 %",1.98%
same,inhibition,"PRVABC59, Concentration 99.01 uM, Number of replicates 2.0, Standard deviation 1.1165044088819678 %",3.17%
same,inhibition,"PRVABC59, Concentration 198.0 uM, Number of replicates 2.0, Standard deviation 2.162632853057415 %",5.07%
CC(=O)Nc1ccc(NC(=O)c2cc(Cl)ccc2NS(=O)(=O)c2ccc(Oc3ccccc3Cl)cc2)cc1,inhibition,[1],63.1%
CN(C(=O)C1CCN(c2ccc(C=O)cc2)CC1)[C@H]1CCN(Cc2ccccc2)C1,inhibition,[2],13.4%
N#Cc1cc(Cl)ccc1NC(=O)C1CCN(c2ccc(C=O)cc2)CC1,inhibition,[2],20.6%
Cc1ccc2ccccc2c1NC(=O)c1cc(Cl)ccc1NS(=O)(=O)c1ccc(Oc2ccccc2Cl)cc1,inhibition,[1],26.4%
O=C(NCc1nc(-c2ccccn2)no1)c1cc(Cl)ccc1NS(=O)(=O)c1ccc(Oc2ccccc2Cl)cc1,inhibition,[1],54%
O=C(NCCN1C(=O)CSC1=O)c1cc(Cl)ccc1NS(=O)(=O)c1ccc(Oc2ccccc2Cl)cc1,inhibition,[1],10.6%
c1cnc2c(C3CCN(Cc4csc5ccccc45)CC3)c[nH]c2c1,inhibition,"PRVABC59, Concentration 49.5 uM, Number of replicates 2.0, Standard deviation 0.9335257205332559 %",11.4%
same,inhibition,"PRVABC59, Concentration 99.01 uM, Number of replicates 2.0, Standard deviation 1.6284840941050231 %",16.1%
same,inhibition,"PRVABC59, Concentration 198.0 uM, Number of replicates 2.0, Standard deviation 1.395101821034739 %",13.2%
COc1ccc(NC(=O)c2cc(Cl)ccc2NS(=O)(=O)c2ccc(Oc3ccccc3Cl)cc2)cc1C(F)(F)F,inhibition,[1],51.3%
NC(=O)c1c(NC(=O)c2cc(Cl)ccc2NS(=O)(=O)c2ccc(Oc3ccccc3Cl)cc2)sc2c1CCCC2,inhibition,[1],41.9%
CC(C)N(C[C@H](O)c1ccc(O)c(O)c1)C(=O)c1cc(Cl)ccc1NS(=O)(=O)c1ccc(Oc2ccccc2Cl)cc1,inhibition,[1],6.32%
O=C(NCc1ccccc1N1CCOCC1)c1cc(Cl)ccc1NS(=O)(=O)c1ccc(Oc2ccccc2Cl)cc1,inhibition,[1],22%
Cc1ccc(NC(=O)C2CCN(c3ccc(C=O)cc3)CC2)cc1Br,inhibition,[2],18.1%
COc1cc(Cc2cnn(-c3ccc(F)cc3)c2)nc(N2CCNCC2)n1,inhibition,"PRVABC59, Concentration 49.5 uM, Number of replicates 2.0, Standard deviation 1.9362885979262678 %",4.42%
same,inhibition,"PRVABC59, Concentration 99.01 uM, Number of replicates 2.0, Standard deviation 2.731346748235773 %",8.59%
same,inhibition,"PRVABC59, Concentration 198.0 uM, Number of replicates 2.0, Standard deviation 2.5982028307411302 %",15.7%
CC(C)(CO)NC(=O)c1cc(Cl)cc(NC(=O)c2cc(Cc3ccccc3)c[nH]2)c1,inhibition,"PRVABC59, Concentration 49.5 uM, Number of replicates 2.0, Standard deviation 1.6983362577782506 %",4.04%
same,inhibition,"PRVABC59, Concentration 99.01 uM, Number of replicates 2.0, Standard deviation 1.226576129977383 %",6.14%
same,inhibition,"PRVABC59, Concentration 198.0 uM, Number of replicates 2.0, Standard deviation 1.4604051596418826 %",8.64%
NCc1cccc(NC(=O)C2(NC(=O)OCc3ccccc3)CC2)c1,inhibition,"PRVABC59, Concentration 49.5 uM, Number of replicates 2.0, Standard deviation 2.2679171979241746 %",0.039%
same,inhibition,"PRVABC59, Concentration 99.01 uM, Number of replicates 2.0, Standard deviation 1.0231068239944325 %",4.59%
same,inhibition,"PRVABC59, Concentration 198.0 uM, Number of replicates 2.0, Standard deviation 2.475082445346742 %",9.54%
Cc1cc(CO)c2cccc(Cc3ccccc3NC(=O)C3(C(N)=O)CC3)c2n1,inhibition,"PRVABC59, Concentration 49.95 uM, Number of replicates 2.0, Standard deviation 1.5676160685642115 %",-1.28%
same,inhibition,"PRVABC59, Concentration 99.9 uM, Number of replicates 2.0, Standard deviation 1.2673258947538377 %",3.64%
Cn1cc(CNC(=O)c2cccc3ncccc23)cn1,inhibition,"PRVABC59, Concentration 49.5 uM, Number of replicates 2.0, Standard deviation 3.4483583759971688 %",-6.59%
same,inhibition,"PRVABC59, Concentration 99.01 uM, Number of replicates 2.0, Standard deviation 3.226070839328892 %",-5.64%
same,inhibition,"PRVABC59, Concentration 198.0 uM, Number of replicates 2.0, Standard deviation 3.66484751783471 %",-4.62%
O=C(c1cc2ccccc2[nH]1)N1CCC[C@H](c2c[nH]c3ncccc23)C1,inhibition,"PRVABC59, Concentration 49.5 uM, Number of replicates 2.0, Standard deviation 0.30571435730989244 %",3.85%
same,inhibition,"PRVABC59, Concentration 99.01 uM, Number of replicates 2.0, Standard deviation 1.984552134267851 %",8.09%
same,inhibition,"PRVABC59, Concentration 198.0 uM, Number of replicates 2.0, Standard deviation 2.494939680141559 %",7.71%
O=Cc1ccc(N2CCC(C(=O)Nc3ccn([C@H]4C[C@H](O)[C@@H](CO)O4)c(=O)n3)CC2)cc1,inhibition,[2],20.2%
Cc1ccccc1OC1CN(C(=O)C2CCN(c3ccc(C=O)cc3)CC2)C1,inhibition,[2],28.9%
CN(CCC(c1ccccc1)c1ccccc1)C(=O)c1cc(Cl)ccc1NS(=O)(=O)c1ccc(Oc2ccccc2Cl)cc1,inhibition,[1],4.15%
Cc1cc(CO)c2cccc(C[C@H](NC(=O)C[C@H]3CCCN3)C(=O)O)c2n1,inhibition,"PRVABC59, Concentration 49.95 uM, Number of replicates 2.0, Standard deviation 2.157802234162187 %",-2.33%
same,inhibition,"PRVABC59, Concentration 99.9 uM, Number of replicates 2.0, Standard deviation 1.8065320647932943 %",-0.49%
C[C@@]1(CNC(=O)c2ccnc3[nH]cnc23)CCCN1C(=O)c1cc[nH]n1,inhibition,"PRVABC59, Concentration 49.5 uM, Number of replicates 2.0, Standard deviation 1.69185761281255 %",-0.335%
same,inhibition,"PRVABC59, Concentration 99.01 uM, Number of replicates 2.0, Standard deviation 1.822592163565219 %",-1.72%
same,inhibition,"PRVABC59, Concentration 198.0 uM, Number of replicates 2.0, Standard deviation 2.8325799380236654 %",-4.63%
O=Cc1ccc(N2CCC(C(=O)NCc3ccccc3N3CCOCC3)CC2)cc1,inhibition,"PRVABC59, Concentration 10.0 uM, Number of replicates 1.0",18.6%
COc1ccccc1C1CCN(C(=O)c2cc(Cl)ccc2NS(=O)(=O)c2ccc(Oc3ccccc3Cl)cc2)CC1,inhibition,[1],1.59%
Cc1cc(CO)c2cccc(NC(=O)c3cccc(Cn4cncn4)c3)c2n1,inhibition,"PRVABC59, Concentration 49.95 uM, Number of replicates 2.0, Standard deviation 2.574308180740061 %",-0.138%
same,inhibition,"PRVABC59, Concentration 99.9 uM, Number of replicates 2.0, Standard deviation 1.9018768762288814 %",11.1%
O=C(Nc1cc(Cl)ccc1OC(F)(F)F)c1cc(Cl)ccc1NS(=O)(=O)c1ccc(Oc2ccccc2Cl)cc1,inhibition,[1],23.2%
COc1cc(COc2ccc(CO)cc2F)nc(N2CCNCC2)n1,inhibition,"PRVABC59, Concentration 49.5 uM, Number of replicates 2.0, Standard deviation 1.1475105809259771 %",0.441%
same,inhibition,"PRVABC59, Concentration 99.01 uM, Number of replicates 2.0, Standard deviation 0.43704832054208337 %",3.74%
same,inhibition,"PRVABC59, Concentration 198.0 uM, Number of replicates 2.0, Standard deviation 1.1371536672540012 %",9.77%
Cc1cc(CO)c2cccc(Cc3ccccc3NC(=O)Cc3cccc(CN)c3)c2n1,inhibition,"PRVABC59, Concentration 49.95 uM, Number of replicates 2.0, Standard deviation 1.7712024268821889 %",-1.52%
same,inhibition,"PRVABC59, Concentration 99.9 uM, Number of replicates 2.0, Standard deviation 1.0942771725016864 %",9.23%
Nc1ccc(-c2cccc3c2CCB(O)O3)cn1,inhibition,"PRVABC59, Concentration 500.0 uM, Number of replicates 2.0, Standard deviation 1.552271802404108 %",18.4%
O=C(c1cc(Cl)ccc1NS(=O)(=O)c1ccc(Oc2ccccc2Cl)cc1)N(Cc1cccc(F)c1)C1CCCC1,inhibition,[1],23.4%
O=C(NC1CCN(C(=O)Nc2ccccc2)CC1)c1cc(Cl)ccc1NS(=O)(=O)c1ccc(Oc2ccccc2Cl)cc1,inhibition,[1],18.2%
CCn1ccnc(N[C@@H](CO)Cc2c[nH]c3ccccc23)c1=O,inhibition,"PRVABC59, Concentration 49.5 uM, Number of replicates 2.0, Standard deviation 2.559614693531102 %",-0.575%
same,inhibition,"PRVABC59, Concentration 99.01 uM, Number of replicates 2.0, Standard deviation 2.6505011797210702 %",2.02%
same,inhibition,"PRVABC59, Concentration 198.0 uM, Number of replicates 2.0, Standard deviation 3.157774062953111 %",7.6%
O=Cc1ccc(N2CCC(C(=O)N3CCC(O)(c4ccc(Br)cc4)CC3)CC2)cc1,inhibition,[2],13.8%
O=C(c1ccc(O)cc1)N1CCN(C(=O)c2cc(Cl)ccc2NS(=O)(=O)c2ccc(Oc3ccccc3Cl)cc2)CC1,inhibition,[1],2.91%
COc1ccc([C@H](C)N(C)C(=O)C2CCN(c3ccc(C=O)cc3)CC2)cc1,inhibition,[2],27.8%
O=C(NCCNC(=O)c1cc(Cl)ccc1NS(=O)(=O)c1ccc(Oc2ccccc2Cl)cc1)c1ccc(F)cc1,inhibition,[1],38.7%
c1ccc2c(CN3CCC(c4c[nH]c5ncccc45)CC3)ccnc2c1,inhibition,"PRVABC59, Concentration 49.5 uM, Number of replicates 2.0, Standard deviation 1.5534330323742802 %",7.15%
same,inhibition,"PRVABC59, Concentration 99.01 uM, Number of replicates 2.0, Standard deviation 1.0997070352890421 %",10.6%
same,inhibition,"PRVABC59, Concentration 198.0 uM, Number of replicates 2.0, Standard deviation 1.8020846028978792 %",9.85%
CC1(C)Cc2sc(NC(=O)Cc3ccc(S(N)(=O)=O)cc3)c(C#N)c2CN1CC1CCCCC1,inhibition,"PRVABC59, Concentration 49.5 uM, Number of replicates 2.0, Standard deviation 1.0406888454660856 %",-1.66%
same,inhibition,"PRVABC59, Concentration 99.01 uM, Number of replicates 2.0, Standard deviation 0.332333969654585 %",-2.97%
same,inhibition,"PRVABC59, Concentration 198.0 uM, Number of replicates 2.0, Standard deviation 0.7848073624020794 %",-3.46%
C[C@@H](c1ccccc1)N(Cc1ccncc1)C(=O)C1CCN(c2ccc(C=O)cc2)CC1,inhibition,[2],21.5%
Cc1c(C(=O)NCCc2n[nH]c(=O)[nH]2)ccc(O)c1NC(=O)c1ccncc1F,inhibition,"PRVABC59, Concentration 49.5 uM, Number of replicates 2.0, Standard deviation 2.4379418837956695 %",3.24%
same,inhibition,"PRVABC59, Concentration 99.01 uM, Number of replicates 2.0, Standard deviation 1.9819611146087952 %",4.74%
same,inhibition,"PRVABC59, Concentration 198.0 uM, Number of replicates 2.0, Standard deviation 0.24871664525769976 %",5.38%
